Structures are written as SMILES. ± gives the uncertainty stated by the source. For part of its entries the source gives two or more results. The other results are left out here. An entry can have further records. The values listed for one entry are repeated measurements in other runs, samples, wells, individuals or studies. Marks in square brackets tell the records apart. The letters are not those of the source and start again with each entry. Marks such as (2×) give the number of equal values in this list.

Consider `ClC(Cl)Cl`, for which the viscosity reads like this: (293.15 K, 101 kPa) 0.5771 ± 0.015 mPa·s [study A] and 0.556 ± 0.006 mPa·s [study B] and 0.57 ± 0.012 mPa·s [study C] and 0.5706 ± 0.015 mPa·s [study D]; (298.15 K, 101 kPa) 0.5422 ± 0.014 mPa·s, 0.54 ± 0.014 mPa·s, 0.542 ± 0.006 mPa·s, 0.542 ± 0.0055 mPa·s, 0.504 ± 0.0051 mPa·s, 0.504 ± 0.012 mPa·s, 0.5426 ± 0.014 mPa·s, 0.542 ± 0.009 mPa·s, 0.532 ± 0.005 mPa·s, 0.532 ± 0.014 mPa·s, 0.539 ± 0.007 mPa·s, 0.55 ± 0.015 mPa·s, 0.527 ± 0.005 mPa·s, 0.54 ± 0.007 mPa·s (2×) [several studies]; (298.15 K, 101.33 kPa) 0.5475 ± 0.0055 mPa·s, 0.535 ± 0.0037 mPa·s, 0.542 ± 0.005 mPa·s, 0.533 ± 0.005 mPa·s, 0.5357 ± 0.0054 mPa·s, 0.5356 ± 0.0054 mPa·s, 0.5378 ± 0.015 mPa·s, 0.495 ± 0.014 mPa·s, 0.5565 ± 0.0078 mPa·s, 0.532 ± 0.015 mPa·s [several studies]; (303.15 K, 101 kPa) 0.504 ± 0.0053 mPa·s [study A] and 0.5246 ± 0.0058 mPa·s [study B] and 0.61 ± 0.016 mPa·s [study C] and 0.504 ± 0.005 mPa·s [study D] and 0.635 ± 0.008 mPa·s [study E] and 0.5171 ± 0.014 mPa·s [study F] and 0.506 ± 0.005 mPa·s [study G].

For the compound `CCCCCCCCCCCCCCCC`, the viscosity (298.15 K, 101.33 kPa) is 3.078 ± 0.024 mPa·s [study A] and 3.073 ± 0.023 mPa·s [study B] and 3.005 ± 0.068 mPa·s [study C] and 3.081 ± 0.027 mPa·s (3×) [study D].

As to `CC(=O)OCc1ccccc1`, under “313.15 K, 101.33 kPa”, the viscosity was 1.353 mPa·s [study A] and 1.487 ± 0.2 mPa·s [study B].

For orientation: viscosity means the resistance of a fluid to flow.

The values above are taken from the CheMixHub viscosity set.
